The assay concerns KRAS-mutant PDC tumor spheroid with HUVEC/MSC, viability. The assay can be described thus: Anticancer human tumor 327498-153-R-J2-PDC patient-derived uterine carcinosarcoma cell line growth inhibition [KRAS2]. Particulars: for IC50: compound alone; for viability, T/C: stronger effect = lower value. From the text: Multicellular complex tumor spheroid response to RAS pathway inhibitors in combination with a targeted agents in patient-derived cell lines with oncogenic KRAS variants from multiple cancer types
A high-throughput screen of multi-cell type tumor spheroids was designed to identify active combinations of targeted small molecules and KRAS pathway inhibitors. Complex spheroids include a stromal component modeled by human endothelial cells (HUVEC) and fibroblasts modeled by human mesenchymal stem cells (MSCs). The concentration ranges selected for each drug and investigational agent were based upon clinically achievable concentrations if the clinical Cmax of the agent was known.
Compounds. The drugs and investigational agents: BI-3406 (NSC825286), BAY-293 (NSC824723), batoprotafib (TNO155; NSC825523), sotorasib (AMG 510; NSC818433), MRTX1257 (NSC819558), elimusertib (BAY 1895344; NSC800525), molibresib (GSK525762; NSC774829), temuterkib (LY3214996; NSC803410), venetoclax (NSC766270), alisertib (NSC759677), olaparib (NSC753686), talazoparib (NSC767125), erdafitinib (NSC781556), ipatasertib (NSC767898), cabozantinib (NSC761068), nintedanib (NSC756659), abemaciclib (NSC768073), docetaxel (NSC628503), trametinib (NSC758246), and sapanisertib (NSC764658) were obtained from the National Cancer Institute (NCI) Developmental Therapeutics Program Chemical Repository. The FDA-approved anticancer drug set is available from the Developmental Therapeutics Program. […] The stock solutions were prepared in dimethyl sulfoxide (DMSO, Sigma-Aldrich, St. Louis, MO, cat. D2650) at 800-fold the tested concentration and stored at -70 degrees C prior to their use. All drugs and investigational agents were tested over a range starting from a high concentration at or near the clinical Cmax and decreasing in half-log increments. If the clinical Cmax for an agent had not been determined, the highest concentration tested was 10 microM.
Cell Culture. All cells were maintained in an incubator at 37 degrees C and 5% CO2 with 95% humidity. The PDC lines were cultured according to standard operating procedures established by the NCI PDMR (https://pdmr.cancer.gov/sops/default.htm). Briefly, all PDCs were thawed and cultured in Matrigel-coated flasks prepared with a working solution of 1X Ham's F-12 nutrient mix, without supplementation (Invitrogen, Waltham, MA, cat. 11765054), 100 U/mL penicillin-streptomycin (Invitrogen, cat. 15140122), and 2.5% Matrigel (Corning Inc., Corning, NY, cat. 354248) for the first three passages. All PDCs were cultured in complete DMEM/F-12 media containing advanced DMEM/F-12 (Invitrogen, cat. 12634028), 4.9% defined fetal bovine serum, heat inactivated (HyClone Laboratories Inc., Logan, UT, cat. SH30070.03HI), 389 ng/mL hydrocortisone (Sigma-Aldrich, cat. H4001), 9.7 ng/mL human EGF recombinant protein (Invitrogen, cat. PHG0313), 23.4 microg/mL adenine (Sigma-Aldrich, cat. A2786), 97.3 U/mL penicillin-streptomycin (Invitrogen, cat. 15140122), 1.9 mM L-glutamine (Invitrogen, cat. 25030081), and 9.7 microM Y-27632 dihydrochloride (Tocris Bioscience, Bristol, United Kingdom, cat. 1254). The PDCs were cultured in complete DMEM/F12 media without 9.7 microM Y-27632 dihydrochloride for at least two passages prior to the screen. The established cell line HOP-62 was cultured in RPMI 1640 medium, HEPES (Invitrogen, cat. 22400105) with 10% defined fetal bovine serum (HyClone Laboratories Inc., cat. SH30070.03) and 2 mM L-glutamine (Invitrogen, cat. 25030081). The pooled donor HUVEC were cultured in endothelial cell growth medium 2 (PromoCell, Heidelberg, Germany, cat. C-22011) and the hMSC were cultured in mesenchymal stem cell growth medium 2 (PromoCell, cat. C-28009). For all experiments, HUVEC and hMSC were used at passages </=5, while the malignant cell lines were used at passages </=15. […]

Among the data in PubChem BioAssay AID1963867 (Molecular Pharmacology Branch, DTP, NCI, 2024) are IC50 and viability, T/C values, retold here.

Structures are written as SMILES. Some entries of the source have several records that differ or are many. The list is limited to them. An entry can have further records. The values listed for one entry are repeats in other runs, samples, wells, individuals or studies. Signs of the kind (2×) stand for listed records that agree. Marks such as [2022-09] give the month of the run. A value given as a limit tells only on which side of the number the result lay.
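Also: spheroids exposed to agents for seven days before reading.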
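For viability, T/C in this document: 100% = DMSO vehicle wells so lower means fewer viable cells.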

A word on the IC50: it is the concentration that gives 50% inhibition. Turning to `COC(=O)c1ccc2c(C(=Nc3ccc(N(C)C(=O)CN4CCN(C)CC4)cc3)c3ccccc3)c(O)[nH]c2c1`, the IC50 is listed as 1.56 µM, 1.45 µM, 4.15 µM, > 10 µM. For the same compound, the viability, T/C (compound alone 1 µM) is reported as 59.2, 59.8, 63, 70.2, 87%. Also, the viability, T/C (compound alone 3.16 µM) is given as 32.9, 32.5, 23.8, 51, 53.6%. Besides, for the setting “compound alone 10 µM”, the viability, T/C is listed as 10.4, 8.17, 13.1, 43.9, 53.1%.

Take `CCNC(=O)CC1N=C(c2ccc(Cl)cc2)c2cc(OC)ccc2-n2c(C)nnc21` (stereo unspecified): the IC50 is recorded as 8.59 µM, > 10 µM, 8.65 µM, 839 nM, 9.32 µM. The viability, T/C (compound alone 3.16 µM) is 61.1, 52.4, 57.6, 32.7, 58.2%. Further, the viability, T/C (compound alone 10 µM) was 47.7 (2×), 55.3, 21.9, 48.4%.

As for `COc1cc2nc(C)nc(NC(C)c3cc(N)cc(C(F)(F)F)c3)c2cc1OC1CCOC1` (stereo unspecified), the viability, T/C is, setting by setting: (compound alone 0.1 µM) 86.5, 88, 82, 92.3, 86.2, 88.3, 60.3, 72.1, 64.2, 87.6 (2×), 76.9 (2×), 81.3, 81.2, 80.7, 77.3%; (compound alone 0.316 µM) 64.5, 68.8, 78.1, 76.1, 83, 88.6, 60.2, 68, 67.9, 74.8, 71.5, 78.6, 77.5, 77.1, 73.8, 73.5%; (compound alone 1 µM) 105, 94.9 (2×), 74.5 (2×), 77.2, 60.2, 67.5, 69.2, 79.4, 68.5, 65.9, 85.4, 65.7, 83.6, 77% (2×); (compound alone 10 µM) 69.8, 56.3, 103, 55.5, 57.3 (2×), 49.8, 54.5, 48.2, 53.5, 47, 55, 62.5, 69.6, 55.3, 53, 54.6%.

For the compound `C=CC(=O)N1CCN(c2nc(OCC3CCCN3C)nc3c2CCN(c2cccc4cccc(C)c24)C3)CC1CC#N` (stereo unspecified), the viability, T/C is, setting by setting: (compound alone 0.0316 µM) 73.7, 75.5, 75.8, 54.7, 73.5, 81.7, 57.5, 63.5, 62.2, 77.9, 72.1, 67.5, 71.4, 67.7, 71.7, 66.5, 55.4%; (compound alone 0.1 µM) 62.7, 67.5, 64.2, 56.2, 66.4, 71.4, 61.3, 59.2, 55.6, 98.9, 54.4, 53.8, 56.7, 59, 61.4, 46.5, 56.5%; (compound alone 3.16 µM) 91.8, 0.19 (3×), 0.18 (2×), 4.54, 0.17, 1.14, 0.43, 0.36, 0.62, 1, 1.17, 1.23, 1.04%. The IC50 runs as follows: (run of 07/12/2021) > 3.16 µM, 1.04 µM, 1.16 µM, 425 nM, 1.09 µM, 862 nM; (run of 07/19/2021) 788 nM and 387 nM, 1.12 µM, 651 nM, 230 nM [2021-07]; (run of 07/26/2021) 623 nM, 1.16 µM, 220 nM, 870 nM, 223 nM, 390 nM.

On to `CC1COCCN1c1cc(-c2ccnn2C)c2ccnc(-c3ccn[nH]3)c2n1` (stereo unspecified), for which the IC50 was 43.2 nM, 48.3 nM, 54 nM, < 10 nM, 32.6 nM. Moreover, the viability, T/C (compound alone 0.01 µM) was 84.6, 96.4, 92.1, 7.53, 92%. Further, the viability, T/C (compound alone 0.0316 µM) was 61.4, 68.6, 79.1, 6.4, 50.9%.

On to `CNCc1ccccc1-c1csc(C(C)Nc2nc(C)nc3cc(OC)c(OC)cc23)c1` (stereo unspecified), for which the viability, T/C (compound alone 1 µM) is recorded as 105, 106, 84.9, 66.3, 79, 79.8, 61.7, 72.1, 73.5, 70.9, 74.7, 76.8, 77.4, 72.4, 75.5, 75.4, 66.8% and the viability, T/C (compound alone 3.16 µM) was 105, 84.6, 68.3, 7.39, 33.9, 47.3, 10.4, 0.12, 0.11, 0.09 (2×), 19, 0.87, 0.15, 0.1%. For the same compound, where the note is “run of 07/12/2021”, the half-maximal inhibitory concentration (IC50) is given as 5.47, 5.12, 4.31, 1.37, 2.1, 2.96 µM.

As for `C=CC(=O)N1CCN(c2nc(=O)n(-c3c(C)ccnc3C(C)C)c3nc(-c4c(O)cccc4F)c(F)cc23)C(C)C1` (stereo unspecified), the viability, T/C is, setting by setting: (compound alone 0.1 µM) 71.8 (2×), 93.2, 54.5, 62.9, 72.6, 66.5, 55.5, 59, 56.1, 69.8, 65.1, 70.7, 65.3, 60.8, 63.1, 60.1%; (compound alone 0.316 µM) 59.2 (2×), 95.7, 58.6, 55.7, 61.4, 64, 61.2, 61.3, 56.8, 54.9, 63.2, 60, 60.7, 52.8, 62, 54.4%; (compound alone 1 µM) 63, 102, 61.2, 48.5, 58.5, 55, 57.3, 53.1, 63.4, 57.7, 54.7 (2×), 63.7, 60.1, 60 (2×), 56%; (compound alone 3.16 µM) 65.4, 91.4, 62.4, 47.8, 62.2, 33.5, 62.7, 49.1, 61.9, 57.7, 57.9, 56.7, 52.3, 60.5, 58.5, 54, 60.2%; (compound alone 10 µM) 58.9, 111, 49.3, 36.8, 46.2, 22.7, 52.4, 35.2, 50.3, 39.4, 43.5, 55.3, 46.7, 45.9, 49.4, 46.6, 44.6%. Also, the IC50 is, setting by setting: (run of 07/19/2021) > 10 µM, 2.58 µM, 4.89 µM, 4.54 µM; (run of 07/26/2021) > 10 µM, 5.27 µM, 7.16 µM, 6.05 µM.

On to `COc1cc(OC)cc(N(CCNC(C)C)c2ccc3ncc(-c4cnn(C)c4)nc3c2)c1`, for which the IC50 is 4.54 µM, 4.62 µM, 4.78 µM, 113 nM, 4.71 µM. For the same compound, the viability, T/C (compound alone 0.316 µM) was 63.5, 75.5, 80.8, 7.76, 79.6%. Also, where the note is “compound alone 1 µM”, the viability, T/C is recorded as 86.9, 73.5, 82.8, 2.1, 78.5%. Further, the viability, T/C (compound alone 3.16 µM) is listed as 72.7, 77.9, 81, 0.47, 76.2%.

As for `CC1OCC2(CCN(c3cnc(Sc4ccnc(N)c4Cl)c(N)n3)CC2)C1N` (stereo unspecified), the viability, T/C is 98.6, 99.8, 102, 46.6, 48.8, 43.5, 36.2, 45.1, 40.9 (2×), 43.4, 35.6, 48.1, 48.5, 54.8, 44.3, 38.1, 39.9, 43, 59% (compound alone 1 µM) and 18.3, 39.4, 39.7, 38.6, 37.2, 28.9 (2×), 31.3, 38.8, 32.4, 32.7, 40.1, 45.7, 40.3, 32.2, 35.1, 31, 35.5, 28.4, 43.1% (compound alone 3.16 µM). For the setting “run of 07/12/2021”, the IC50 was 1.84 µM, 2.35 µM, 2.44 µM, 749 nM, 912 nM, 700 nM.

Turning to `COc1cc2nccc(Oc3ccc(NC(=O)C4(C(=O)Nc5ccc(F)cc5)CC4)cc3)c2cc1OC`, the IC50 is 2.37, 2.2, 2.9, 10, 2.98 µM. Further, for the setting “compound alone 1 µM”, the viability, T/C is on record as 101, 91.1, 108, 45, 97.3%. In addition, where the note is “compound alone 3.16 µM”, the viability, T/C is reported as 34, 31.1, 46.2, 2.04, 47.4%. Where the note is “compound alone 10 µM”, the viability, T/C is given as 7.04, 6.18, 3.41, 103, 4.4%.
